Sequences and labels used below:
B1: LINE1-mini (parent)
chain: GGCAGAGCUCAACACAGCGUGGCAAAGUGGCUGUGGCUAGACUGCC

The source gives no read counts; variants with many changes may rest on few reads.

The variants in this data set derive from B1. The experiment in a line: self-cleavage, relative activity (ratio to wild type); higher = more cleavage; in vitro, sequencing; the parent is a self-cleaving ribozyme.
With G1A G2A G7C A11U C18U, the self-cleavage worked out at 0.13. In the case of G1A G27C G44U, the self-cleavage turned out to be 0.63. Consider G1A C10U C18G G35U, for which the self-cleavage amounted to 0.03. In the case of G1A G19U C37A, the self-cleavage worked out at 0.01.

G1C A4U G5A A24C C42U: the self-cleavage came out at 0.03. In the case of G1C C8A C46U, the self-cleavage came out at 0.01.

For G1A C10U G33U, the self-cleavage stood at 0.12. G1C A6C C45G: the self-cleavage was 0.02. As for G1C C3G A39U, the self-cleavage worked out at 0.13. On to G1A C18U G21A A39U C42G, for which the self-cleavage turned out to be 0. Take G1C C3U U38A: the self-cleavage is 0.14. For G1C C31A U38A A39C G40U, the self-cleavage was 0.01. Consider G1A C23A U38C, for which the self-cleavage amounted to 1.03.

In the case of G1C G7A A11C, the self-cleavage was 0.02. With G1C C18A C31G, the self-cleavage came out at 0.02. To G1C G19A A41U C42A belongs 0.21; to G1C C31G G33U, 0.02; to G1C C8A G17C G27U C45U, 0.09. Regarding G1C G2A C8A C10G C37G C42A U43C, the self-cleavage is 0.01.

With G1A C37A A39C, the self-cleavage was 0.09. Consider G1C C8G U38C A41U, for which the self-cleavage is 0.01. Turning to G1C C8A A11G, the self-cleavage came to 0. For G1A G2C G7A G30U, the self-cleavage was found to be 1.13. Next, G1C A39U G44A: 0.04; G1A G2A C18G G22C: 0.32. Regarding G1A C13U U20G G35A, the self-cleavage was determined as 0.17. Consider G1C C15A A24U, for which the self-cleavage came out at 0.02. For the variant G1A C15U G19A G27U, the self-cleavage turned out to be 0.14. For G1A G22C C31G U32G U34C, the self-cleavage came to 0.08. To G1C G7C C18U C46A belongs 0.02; to G1A G21A G44A, 1.08.

Turning to G1C G2A C3G C13U, the self-cleavage is 0.12. For G1C C15G C31U G40U, the self-cleavage is 0. In the case of G1C G5U A12U C23U A41U C45U, the self-cleavage worked out at 0.02. Next, G1C G2C C8G G19U G21C G27C: 0.02; G1C G7U C18G U34C: 0.03. In the case of G1A C10A U34C, the self-cleavage is 0. To G1A G21C C45A belongs 2.56; to G1C C3A C8G C13U A16U G17A, 0.02; to G1A G7A U9G, 0.23.

Turning to G1C A6G C31A U38A A41C, the self-cleavage is 0.01. Turning to G1A C15A G36C, the self-cleavage was 0.1. For G1C G5A C15A G44U, the self-cleavage was 0.04. Next, G1A U9A C13A G22U G35C: 0.13; G1C A11U A12U U32G G36C G40A: 0.01; G1A G33U G40U: 0.03.

Turning to G1C A4U C13U, the self-cleavage was 0.06. G1C C13U A26C G29A U43C: the self-cleavage was 0.04.

For the variant G1A G5U C8U C18A, the self-cleavage was 0.56. On to G1A C10U U28A, for which the self-cleavage was found to be 0.34. As for G1A C10U U28C, the self-cleavage stood at 0.32. As for G1A U28G G35U C46U, the self-cleavage was 0.09. Take G1C C10U C18G A25C: the self-cleavage stood at 0.01. As for G1A G17U G22A U34C C42A, the self-cleavage is 0.07. For G1A C23G A24G A25G, the self-cleavage stood at 0.06. For the variant G1A C15A G22A, the self-cleavage was determined as 0.15. In the case of G1C C18G G22U G44C, the self-cleavage is 0.01. With G1C C8U A11U G21A A41U, the self-cleavage was determined as 0.01. Take G1C C10A U20G G33C G36U: the self-cleavage turned out to be 0.01. Turning to G1C G7A C13A C15U G21U A26U U32A G36A, the self-cleavage was found to be 0.02. As for G1A G5U U9G G30A, the self-cleavage turned out to be 0.07.

For G1A G17C A26G A39C, the self-cleavage was 0.01.

Consider G1A G33C G35U U43A, for which the self-cleavage was found to be 0.06.

With G1A G2C A4G A11G C37U, the self-cleavage came to 0. Next, G1C A16G C23G G36U: 0.02; G1A G5C C8A C18A U32A U38G: 0.24; G1C G17A G35U: 0.02.

For the variant G1A C31G U34G, the self-cleavage amounted to 0.03.

As to G1C C23A G29U, the self-cleavage is 0.41. As to G1A U9A A11G, the self-cleavage came to 0.11. Next, G1C A14U G40C G44U: 0.

Regarding G1C G5C G35C C37U, the self-cleavage was 0.

On to G1C G7A G40A, for which the self-cleavage worked out at 0.04. As for G1C G7U C23U G40U, the self-cleavage came to 0.04. Next, G1A G21A G29A: 1.47.

For G1A C15G G17U U43G, the self-cleavage was 0.12. Regarding G1C C13U G21C G22C A41G, the self-cleavage was determined as 0.03.

As to G1C C10U G22U C37U G40C C46U, the self-cleavage was determined as 0.01. On to G1C C15U A25G A41C, for which the self-cleavage came to 0.02. For G1C A11U U38C, the self-cleavage was determined as 0.01.

Take G1A G2C A12G G21U C23G U28C G35C A39U: the self-cleavage came out at 0.01. Consider G1A C15A A41C, for which the self-cleavage amounted to 0.14.

As to G1A C15G A41C C42G, the self-cleavage is 0.06.

Regarding G1A C13U G21C C23A A26G U28G, the self-cleavage is 0.22. In the case of G1A G19A U28C U32C C42A, the self-cleavage was determined as 0.04. To G1A G7A A41G belongs 0.24. G1A G5C A6C A24U U43G: the self-cleavage was 0.

Consider G1C C31U A39G, for which the self-cleavage stood at 0.02. On to G1A G2U A12U C23A A25U G30C C42A, for which the self-cleavage was determined as 0.01.

For the variant G1A C15U G19C G44U, the self-cleavage worked out at 0.18. To G1C G7C C13A A16C A24C C42U belongs 0; to G1A G17A G33U, 0.05. To G1A G22A G40A belongs 0.11. To G1C A12U G22C U43G belongs 0.01; to G1A G21U G22A, 1.74. On to G1C C15G U20G, for which the self-cleavage came out at 0.02. Regarding G1A G5C A12C C13U U43C, the self-cleavage worked out at 0.03. G1A G5C G7C C15A A25C U28G G29U A41U C46A: the self-cleavage worked out at 0.21.

With G1A C13G G17U, the self-cleavage stood at 0.02. Turning to G1A G7C U38C G40U, the self-cleavage was 0.18. As for G1A G7U A41C G44C, the self-cleavage stood at 1.07.

For G1A G21U C23G C42A, the self-cleavage amounted to 0.01. To G1C A6U G7A C15U G44U C45U belongs 0.01.

Regarding G1C A16U G21C G40A, the self-cleavage was 0. For G1A C15A G33U C37G, the self-cleavage came to 0.01. To G1C C3G G19U belongs 0.09. Regarding G1A C18G A25C U28A U43A, the self-cleavage was 0.05. Next, G1A G22U C23A C37A: 0.02. For G1C G17A U20C U34A C46U, the self-cleavage was 0.01. To G1A G17A A26C C37U belongs 0.02; to G1A C15U G21C, 0.8; to G1A G33A U43A, 0.05. As for G1C C10A C18A G29C A41G, the self-cleavage was determined as 0.01. Take G1C C3G C8A C13G A25C U28G: the self-cleavage amounted to 0.16. As for G1C C3A A12G A14C A16G G29U, the self-cleavage is 0.02.

For the variant G1A G5C A6C G17U, the self-cleavage is 0.18. As to G1C C3G A16U A24G G35C G44C, the self-cleavage came to 0.01. Consider G1A G5U C10A G17U, for which the self-cleavage was 0.04. With G1C C8G C13U C15U G17A, the self-cleavage was 0.03. For the variant G1A G33C U43A, the self-cleavage worked out at 0.1. For G1C C8G G40A, the self-cleavage worked out at 0.02. As to G1C A6U G22U U32C G40A, the self-cleavage turned out to be 0.01. On to G1C A4U C8U C13A C23U C42U, for which the self-cleavage amounted to 0.01.

Consider G1A U9A U43C, for which the self-cleavage came to 0.58. To G1A C31G G40U belongs 0.05; to G1C C3A C8G C42G, 0.01; to G1A G17C C45G, 0.05. Next, G1A G7A A24U: 0.38; G1C C10U A24U G27U G30C G44A: 0.02.

G1C C15A C23G U38A: the self-cleavage was found to be 0.04. For G1A G7A G22A A24U A39G, the self-cleavage is 0.07. As to G1C A24C U34A U38A, the self-cleavage was 0.01. For G1C A6U G44A, the self-cleavage turned out to be 0.01. As for G1C G7C C45G, the self-cleavage worked out at 0.03.

For the variant G1A G17C G21A A25C G30C G33U U34C, the self-cleavage came to 0.11. To G1C G2U C10U G19A belongs 0.05. On to G1C G7U A14G, for which the self-cleavage was 0.02. Consider G1C C23U G27U C42A C46G, for which the self-cleavage is 0.03. Regarding G1A C31G U32G U34G, the self-cleavage amounted to 0.02.

With G1A C10A U38C A41C, the self-cleavage worked out at 0. Consider G1C G2U U38C, for which the self-cleavage is 0.09.

Regarding G1C G5U A6G G7C C8A C10U A11C, the self-cleavage was 0.02.

As to G1C A41G G44U, the self-cleavage was 0.04.

For the variant G1A G7U G29U, the self-cleavage came to 0.11. As to G1C C3U A6C C10U U34G, the self-cleavage worked out at 0.01.

Turning to G1A G7A G29U, the self-cleavage came to 0.29. In the case of G1C A4C G22C, the self-cleavage amounted to 0.04. Next, G1C G5C A16G G17U U32A U38A C46A: 0.01; G1A C10U C18A: 0.05; G1A C13G G44C: 0.06. As to G1C G5U C10G U32C U34G C42A, the self-cleavage was 0.01. Turning to G1C A6U A12C A26C G36U, the self-cleavage stood at 0. Turning to G1C A6U A16C C23U, the self-cleavage worked out at 0.06. With G1C A25C G29A G30C G35A A39U, the self-cleavage came to 0.03. As to G1A C10G A16G A25C G27A, the self-cleavage is 0.47. Regarding G1C G2A C13A C46U, the self-cleavage worked out at 0.05.

Turning to G1A C15G C31G, the self-cleavage is 0.02. To G1C C8A G27U U34A G44U belongs 0.09; to G1A G29A G35C, 0.08. In the case of G1C C10A A39C C46U, the self-cleavage came to 0.01. With G1C A6C C15G G33A U38C, the self-cleavage came to 0. In the case of G1C A6C C23A, the self-cleavage came to 0.29. Consider G1C C8A A24C G27C C45U, for which the self-cleavage was 0.02. As for G1C A4U G27A U32A, the self-cleavage came to 0.04. Next, G1A G2C A4C G17C: 0.08; G1A G27C U32C: 0.07; G1C G17C U32A C37G: 0.02.

For the origin of these results see the RNAGym collection of RNA variant scans (doi:10.7554/elife.90254).
